Assay results reported in the supplement of paper PMC10369915.
Some of the results follow. No stated cut-off is given here; in the data, active = 3.2 or more and inactive = the rest. The signal is at background level for most entries.

B1: EPHX1_Y283_V285L (peptide)
chain: DVELLYPLKEK
B2: EPHA7_Y202_S207F_YF (peptide)
chain: SVKVFYKKCWF
B3: EXOSC3_Y143_A139P (peptide)
chain: PPSLSYLSFEG
B4: ERCC4_Y577_R576T_YF (peptide)
chain: EVEPTYVVLFD
B5: EPHA3_Y659_T660K (peptide)
chain: TLKVGYKEKQR
B6: ERCC4_Y577_YF (peptide)
chain: EVEPRYVVLFD
B7: ERBB2IP_Y981_YF (peptide)
chain: QFNIQYSSSAA
B8: ESD_Y258_YF (peptide)
chain: RLQEGYDHSFF
B9: EPOR_Y485_N487S_YF (peptide)
chain: LSDGPYSSPFE
B10: ERBB2IP_Y981_I979M_YF (peptide)
chain: QFNMQYSSSAA
B11: EPOR_Y489_N487S_YF (peptide)
chain: PFSSPYENSLI
B12: EREG_Y144_R147Q (peptide)
chain: YFCRWYRNQKS
B13: ERBB2IP_Y981 (peptide)
chain: QYNIQYSSSAA
B14: EPHA8_Y616_E612Q (peptide)
chain: AQPHTYEEPGR
B15: EPHA3_Y659 (peptide)
chain: TLKVGYTEKQR
B16: EPHA2_Y628_M631T (peptide)
chain: EFGEVYKGTLK
B17: ETV6_Y402_R399C_YF (peptide)
chain: ALCHFYKLNII
B18: ERBB2IP_Y977_YF (peptide)
chain: FGPPQYNIQFS
B19: EPHA2_Y772_G777S (peptide)
chain: DPEATYTTSGS
B20: EPHB4_Y574_D576E (peptide)
chain: GREAEYSEKHG
B21: ERN2_Y860 (peptide)
chain: NKKHHYRELPV
B22: ERN2_Y860_H858Y (peptide)
chain: NKKYHYRELPV
B23: ETFDH_Y172_R175H (peptide)
chain: NNHGNYIVHLG
B24: EPHA2_Y772 (peptide)
chain: DPEATYTTSGG
B25: EZH2_Y641 (peptide)
chain: EFISEYCGEII
B26: ERBB3_Y1199_D1194E (peptide)
chain: EEEYEYMNRRR
B27: ERCC4_Y594_R589W (peptide)
chain: WQLEIYRASRP
B28: ENTPD3_Y262 (peptide)
chain: HSFQCYGRNEA
B29: ERBB3_Y1199_D1194E_YF (peptide)
chain: EEEFEYMNRRR
B30: ERCC4_Y577_R576T (peptide)
chain: EVEPTYVVLYD
B31: ENG_Y614 (peptide)
chain: ALWYIYSHTRS
B32: EPOR_Y485_YF (peptide)
chain: LSDGPYSNPFE
B33: ERBIN_Y1107_S1112L_YF (peptide)
chain: GDFLSYREFHL
B34: EPHA7_Y202_YF (peptide)
chain: SVKVFYKKCWS
B35: EP300_Y2219 (peptide)
chain: PQGVGYPPQQQ
B36: ERBB2_Y772_L768S (peptide)
chain: ISDEAYVMAGV
B37: EPHB2_Y742 (peptide)
chain: LADMNYVHRDL

target: SHP2 C-SH2 domain E139D; assay: enrichment score (SH2-bound / input frequency) (ratio); bacterial display of known human phosphotyrosine sites (pTyr-Var adds point mutants) read by sequencing; higher = stronger binding; tyrosines were phosphorylated by kinases first; conditions: peptide library: pTyr-Var
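Further: displayed peptides selected on beads carrying the immobilized SH2 domain, with library peptides lacking any tyrosine serving as negative controls.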

Row | Binder | enrichment score
1 | B1 | inactive: 0.678
2 | B2 | inactive: 0.726
3 | B3 | inactive: 0.761
4 | B4 | inactive: 0.615
5 | B5 | inactive: 0.926
6 | B6 | inactive: 0.688
7 | B7 | inactive: 0.987
8 | B8 | inactive: 0.888
9 | B9 | inactive: 0.557
10 | B10 | inactive: 0.65
11 | B11 | inactive: 1.45
12 | B12 | inactive: 0.341
13 | B13 | inactive: 0.797
14 | B14 | inactive: 0.42
15 | B15 | inactive: 0.874
16 | B16 | inactive: 0.55
17 | B17 | inactive: 2.49
18 | B18 | inactive: 1.06
19 | B19 | inactive: 0.358

Row | Binder | enrichment score
20 | B20 | inactive: 0.519
21 | B21 | active: 3.21
22 | B22 | inactive: 1.28
23 | B23 | inactive: 0.91
24 | B24 | inactive: 0.544
25 | B25 | inactive: 1.13
26 | B26 | inactive: 0.777
27 | B27 | inactive: 0.865
28 | B28 | inactive: 0.614
29 | B29 | inactive: 0.428
30 | B30 | inactive: 0.683
31 | B31 | inactive: 1.1
32 | B32 | inactive: 0.842
33 | B33 | inactive: 1.38
34 | B34 | inactive: 0.612
35 | B35 | inactive: 0.689
36 | B36 | inactive: 0.612
37 | B37 | inactive: 0.514

target: SHP2 C-SH2 domain wild-type; assay: as above; conditions: peptide library: pTyr-Var

Row | Binder | enrichment score
38 | B1 | inactive: 0.734
39 | B2 | inactive: 0.781
40 | B3 | inactive: 0.631
41 | B4 | inactive: 0.737
42 | B5 | inactive: 1.06
43 | B6 | inactive: 0.961
44 | B7 | inactive: 0.797
45 | B8 | inactive: 0.743
46 | B9 | inactive: 0.554
47 | B10 | inactive: 0.566
48 | B11 | inactive: 1.57
49 | B12 | inactive: 0.303
50 | B13 | inactive: 0.696
51 | B14 | inactive: 0.525
52 | B15 | inactive: 0.72
53 | B16 | inactive: 0.556
54 | B17 | inactive: 2.86
55 | B18 | inactive: 0.981
56 | B19 | inactive: 0.37

Row | Binder | enrichment score
57 | B20 | inactive: 0.537
58 | B21 | inactive: 2.73
59 | B22 | inactive: 1
60 | B23 | inactive: 0.956
61 | B24 | inactive: 0.547
62 | B25 | inactive: 1.19
63 | B26 | inactive: 0.516
64 | B27 | inactive: 0.848
65 | B28 | inactive: 0.737
66 | B29 | inactive: 0.462
67 | B30 | inactive: 0.725
68 | B31 | inactive: 0.975
69 | B32 | inactive: 0.742
70 | B33 | inactive: 1.31
71 | B34 | inactive: 0.873
72 | B35 | inactive: 1
73 | B36 | inactive: 0.703
74 | B37 | inactive: 0.416

target: SHP2 N-SH2 domain L43F; assay: as above; conditions: peptide library: pTyr-Var

Row | Binder | enrichment score
75 | B1 | inactive: 0.726
76 | B2 | inactive: 0.924
77 | B3 | inactive: 1.45
78 | B4 | inactive: 0.584
79 | B5 | inactive: 1.17
80 | B6 | inactive: 2.05
81 | B7 | inactive: 1.02
82 | B8 | inactive: 1.19
83 | B9 | inactive: 0.516
84 | B10 | inactive: 0.56
85 | B11 | inactive: 1.48
86 | B12 | inactive: 0.201
87 | B13 | inactive: 1.11
88 | B14 | inactive: 0.425
89 | B15 | inactive: 0.758
90 | B16 | inactive: 0.556
91 | B17 | inactive: 2.47
92 | B18 | inactive: 1.04
93 | B19 | inactive: 0.395

Row | Binder | enrichment score
94 | B20 | inactive: 0.631
95 | B21 | inactive: 2.94
96 | B22 | inactive: 0.992
97 | B23 | inactive: 0.879
98 | B24 | inactive: 0.664
99 | B25 | inactive: 1.05
100 | B26 | inactive: 0.658
101 | B27 | inactive: 0.791
102 | B28 | inactive: 0.683
103 | B29 | inactive: 0.555
104 | B30 | inactive: 0.798
105 | B31 | inactive: 0.872
106 | B32 | inactive: 0.807
107 | B33 | inactive: 1.19
108 | B34 | inactive: 0.684
109 | B35 | inactive: 0.753
110 | B36 | inactive: 0.91
111 | B37 | inactive: 0.6

target: SHP2 N-SH2 domain T42A; assay: as above; conditions: peptide library: pTyr-Var

Row | Binder | enrichment score
112 | B1 | inactive: 0.525
113 | B2 | inactive: 0.51
114 | B3 | inactive: 2.37
115 | B4 | inactive: 0.66
116 | B5 | inactive: 0.768
117 | B6 | inactive: 3.01
118 | B7 | inactive: 0.81
119 | B8 | inactive: 0.734
120 | B9 | inactive: 0.553
121 | B10 | inactive: 0.644
122 | B11 | inactive: 1.66
123 | B12 | inactive: 0.349
124 | B13 | inactive: 0.882
125 | B14 | inactive: 0.563
126 | B15 | inactive: 0.821
127 | B16 | inactive: 0.641
128 | B17 | inactive: 1.97
129 | B18 | inactive: 1
130 | B19 | inactive: 0.356

Row | Binder | enrichment score
131 | B20 | inactive: 0.46
132 | B21 | inactive: 2.82
133 | B22 | inactive: 0.966
134 | B23 | inactive: 0.971
135 | B24 | inactive: 0.526
136 | B25 | inactive: 0.673
137 | B26 | inactive: 0.567
138 | B27 | inactive: 0.665
139 | B28 | inactive: 0.549
140 | B29 | inactive: 0.464
141 | B30 | inactive: 0.522
142 | B31 | inactive: 0.831
143 | B32 | inactive: 0.682
144 | B33 | inactive: 1.25
145 | B34 | inactive: 0.648
146 | B35 | inactive: 0.726
147 | B36 | inactive: 0.625
148 | B37 | inactive: 0.645

target: SHP2 N-SH2 domain T52S; assay: as above; conditions: peptide library: pTyr-Var

Row | Binder | enrichment score
149 | B1 | inactive: 0.598
150 | B2 | inactive: 0.527
151 | B3 | inactive: 1.59
152 | B4 | inactive: 0.67
153 | B5 | inactive: 0.805
154 | B6 | inactive: 2.11
155 | B7 | inactive: 1.24
156 | B8 | inactive: 0.701
157 | B9 | inactive: 0.488
158 | B10 | inactive: 0.615
159 | B11 | inactive: 1.44
160 | B12 | inactive: 0.263
161 | B13 | inactive: 0.71
162 | B14 | inactive: 0.465
163 | B15 | inactive: 0.824
164 | B16 | inactive: 0.483
165 | B17 | inactive: 2.4
166 | B18 | inactive: 1.08
167 | B19 | inactive: 0.535

Row | Binder | enrichment score
168 | B20 | inactive: 0.486
169 | B21 | inactive: 2.99
170 | B22 | inactive: 1.29
171 | B23 | inactive: 1.1
172 | B24 | inactive: 0.539
173 | B25 | inactive: 1.24
174 | B26 | inactive: 0.436
175 | B27 | inactive: 0.836
176 | B28 | inactive: 0.594
177 | B29 | inactive: 0.601
178 | B30 | inactive: 0.688
179 | B31 | inactive: 0.909
180 | B32 | inactive: 0.576
181 | B33 | inactive: 1.21
182 | B34 | inactive: 0.41
183 | B35 | inactive: 0.656
184 | B36 | inactive: 0.741
185 | B37 | inactive: 0.659

target: SHP2 N-SH2 domain wild-type; assay: as above; conditions: peptide library: pTyr-Var

Row | Binder | enrichment score
186 | B1 | inactive: 0.673
187 | B2 | inactive: 1.03
188 | B3 | inactive: 0.934
189 | B4 | inactive: 0.806
190 | B5 | inactive: 0.942
191 | B6 | inactive: 1.04
192 | B7 | inactive: 0.904
193 | B8 | inactive: 1.02
194 | B9 | inactive: 0.469
195 | B10 | inactive: 0.833
196 | B11 | inactive: 1.68
197 | B12 | inactive: 0.212
198 | B13 | inactive: 0.898
199 | B14 | inactive: 0.494
200 | B15 | inactive: 0.902
201 | B16 | inactive: 0.709
202 | B17 | active: 3.21
203 | B18 | inactive: 1.31
204 | B19 | inactive: 0.375

Row | Binder | enrichment score
205 | B20 | inactive: 0.671
206 | B21 | inactive: 2.96
207 | B22 | inactive: 1.04
208 | B23 | inactive: 1.04
209 | B24 | inactive: 0.718
210 | B25 | inactive: 1.17
211 | B26 | inactive: 0.317
212 | B27 | inactive: 0.867
213 | B28 | inactive: 0.817
214 | B29 | inactive: 0.521
215 | B30 | inactive: 0.652
216 | B31 | inactive: 1.13
217 | B32 | inactive: 0.812
218 | B33 | inactive: 1.18
219 | B34 | inactive: 0.845
220 | B35 | inactive: 0.521
221 | B36 | inactive: 0.802
222 | B37 | inactive: 0.687
